In PubChem BioAssay (Tox21):
Where “and” joins values, the source holds several entries; their conditions need not be identical. Equal values may be shown once. Inconclusive means that the source gave no clear call. Such entries were picked first, then a sample of the others. For part of these data: Potencies beside an inconclusive call are fits to weak or partial responses and may not hold up. The source holds several records for some structures; these can differ, active in one and inactive in another. Calls of active or inactive are those of the source. Unless noted, the call rests on the fitted dose curve; in most records, active means well fitted curve in the direction sought with a large enough effect in the repeat runs; inconclusive means weak or mixed curves; inactive means no such curve, though single readings can be large; an effect the other way counts as inactive or inconclusive.

What was measured:
[1] = qHTS assay to identify small molecule antagonists of the estrogen related receptor (ERR) signaling pathway from Tox21 library - cell viability counter screen (AID 1224834); further: potency means the concentration at half of the fitted maximal effect; nearly all actives have a fitted effect of over 30% in size
How it was run: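 CellTiter-Fluor fluorescence measured; ERR cells; 17.5 h compound incubation at 37 C; 30 min reagent step.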

[2] = molecular target: Luciferin 4-monooxygenase (Photinus pyralis) (UniProt P08659); assay: qHTS assay to identify small molecule inhibitors of firefly luciferase (AID 1224835); further: nearly all actives have a fitted effect of over 25% in size; further: potency means the concentration at half of the fitted maximal effect
How it was run: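 Quantitative HTS format; KM concentrations of both substrates. Purified P. pyralis FLuc activity quantified from luminescence images.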

[3] = qHTS assay to identify small molecule agonists of the constitutive androstane receptor (CAR) signaling pathway - cell viability counter screen (AID 1224836); further: nearly all actives have a fitted effect of over 45% in size; further: potency means the concentration at half of the fitted maximal effect
How it was run: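 Fluorescence from CellTiter-Fluor indicates live cells after 23 h exposure. The human hepatoma line expresses hCAR and a CYP2B6-2.2kb reporter. Incubation medium contains 0.75 uM PK11195 (final).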

[4] = molecular target: Thyrotropin receptor (Homo sapiens) (UniProt P16473); assay: qHTS assay to identify small molecule agonists of the thyroid stimulating hormone receptor (TSHR) signaling pathway (AID 1224843; calls by dose curve; further: nearly all actives have a fitted effect of over 45% in size; further: potency means the concentration at half of the fitted maximal effect; on activation: on the % scale 0 is the no-effect control and ±100 the full control effect); conditions: TSHR-HEK293 cells, cAMP HTRF, agonist mode, 30 min; activation: at 92.4 µM (top of the series) unless noted
How it was run: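 Cell line HEK293 with TSHR; density 800/well. Exposure 30 min RT. Readout HTRF cAMP (cAMP-d2/anti-cAMP-cryptate), 1 h RT before reading.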

[5] = qHTS assay to identify small molecule agonists of the hypoxia (HIF-1) signaling pathway - cell viability counter screen (AID 1224844; calls by dose curve; further: nearly all actives have a fitted effect of over 50% in size; further: potency means the concentration at half of the fitted maximal effect)
How it was run: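 Multiplexed with the HRE beta-lactamase assay, this viability read used CellTiter-Glo luminescence (30 min, RT) on HRE-bla ME-180 cells treated 17 hrs with compounds in 0.5% dialyzed FBS medium.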

[6] = qHTS assay to identify small molecule agonists of H2AX (AID 1224845; active means well fitted activation curve with a large enough effect in the signal ratio in the repeat runs, not every such curve was filed as active; inconclusive means weak or mixed curves; the % refers to the signal ratio; further: potency means the concentration at half of the fitted maximal effect; on activation (H2AX phosphorylation): on the % scale 0 is the no-effect control and ±100 the full control effect); conditions: CHO-K1 phospho-H2AX Ser139 HTRF, 3 h; activation (H2AX phosphorylation): at 154 µM (top of the series) unless noted
How it was run: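 Wild-type CHO-K1 cells plated overnight, then exposed 3 hr at 37C to compounds at 15 concentrations (0.76% DMSO). Lysed, then HTRF anti-pH2AX(S139)-cryptate/anti-H2AX-d2 detection after 24 hr at room temperature; emissions 665 and 620 nm.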

[7] = qHTS assay to identify small molecule agonists of the hypoxia (HIF-1) signaling pathway (AID 1224846; active means well fitted activation curve with a large enough effect in the signal ratio in the repeat runs, not every such curve was filed as active; inconclusive means weak or mixed curves; the % refers to the signal ratio; further: potency means the concentration at half of the fitted maximal effect); conditions: HRE-bla ME-180 cells, beta-lactamase ratio, 17 h; activation: at 76.8 µM (top of the series) unless noted
How it was run: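 Hypoxia-pathway activation was scored as increased beta-lactamase from an HRE-controlled reporter in ME-180 cells; plated at 2,000 cells per well with 0.5% dialyzed FBS, they were exposed 17 hrs to compounds and then given CCF4-AM.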

[8] = qHTS assay to identify small molecule antagonists of the estrogen related receptor (ERR) signaling pathway from Tox21 library (AID 1224848); further: potency means the concentration at half of the fitted maximal effect; nearly all actives have a fitted effect of over 50% in size
How it was run: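 Screening used an ERR reporter line supplied by NTP, exposed for 18 h at 37 C to library compounds delivered in DMSO. Signal was luciferase luminescence developed with ONE-Glo at room temperature for 30 min.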

[9] = qHTS RealTime-Glo MT Cell Viability Assay in HEK293 cells - 32 hour (AID 1224868); further: potency means the concentration at half of the fitted maximal effect; nearly all actives have a fitted effect of over 50% in size
How it was run: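 Tox21 10K qHTS, HEK293, 600 cells/well, RealTime-Glo reagent co-dispensed with cells; 5 h preincubation, compound by pintool, 37 C, luminescence at 0–40 h.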

[10] = qHTS assay to identify small molecule antagonists of the estrogen related receptor signaling pathway with the pleiotropic PPARgamma coactivator (PGC) from Tox21 10K library (AID 1224841; call rule not given here; further: actives are mostly falling curves and most rising ones were filed inactive; nearly all actives have a fitted effect of over 50% in size; further: potency means the concentration at half of the fitted maximal effect)
How it was run: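 Each well held 2,000 PGC/ERR cells, pre-incubated six hours (37 C, 5% CO2). Test substances in DMSO were added by pin tool and left for 18 h at 37 C before luciferase detection by One-Glo.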

[11] = molecular target: Nuclear receptor subfamily 1 group I member 3 (Homo sapiens) (UniProt Q14994); assay: qHTS assay to identify small molecule agonists of the constitutive androstane receptor (CAR) signaling pathway (AID 1224839); further: potency means the concentration at half of the fitted maximal effect; nearly all actives have a fitted effect of over 15% in size
How it was run: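 Stable hCAR/CYP2B6-2.2kb HepG2 line in DMEM with 10% FBS; compounds (15 concentrations) and 0.75 uM PK11195 final, 24 h at 37 C/5% CO2, then ONE-Glo luminescence after 30 min.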

[12] = qHTS assay to identify small molecule antagonists of the estrogen related receptor signaling pathway with the pleiotropic PPARgamma coactivator (PGC) from Tox21 10K library - cell viability counter screen (AID 1224840; active means well fitted cell-killing curve with a large enough effect in the repeat runs, not every such curve was filed as active; inconclusive means weak or mixed curves, or effect the other way; inactive means no such curve, though single readings can be large or run the other way; further: nearly all actives have a fitted effect of over 40% in size; further: potency means the concentration at half of the fitted maximal effect)
How it was run: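 Here the PGC/ERR cells serve as a cytotoxicity control: they are exposed to compounds for 17.5 hours at 37 C, and live-cell signal is quantified using CellTiter-Fluor fluorescence.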

[13] = qHTS assay to identify small molecule agonists of H2AX - cell viability counter screen (AID 1224847; calls by dose curve; further: potency means the concentration at half of the fitted maximal effect; nearly all actives have a fitted effect of over 30% in size)
How it was run: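 Viability of CHO-K1 (wild type) cells after 3 hr compound exposure was measured by CellTiter-Glo luminescence.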

[14] = qHTS assay to identify small molecule agonists of the estrogen related receptor signaling pathway with the pleiotropic PPARgamma coactivator (PGC) (AID 1224823); further: on the % scale 0 is the no-effect control and ±100 the full control effect
How it was run: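 Steps: plate PGC/ERR cells at 2,000 cells/well; incubate 6 h, 37 C/5% CO2; pin-transfer compounds (DMSO); incubate 18 h, 37 C; add One-Glo; 30 min RT; read luminescence.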

[15] = qHTS assay to identify small molecule antagonists of the constitutive androstane receptor (CAR) signaling pathway - cell viability counter screen (AID 1224837); further: potency means the concentration at half of the fitted maximal effect; nearly all actives have a fitted effect of over 45% in size
How it was run: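 Using CellTiter-Fluor, viability is scored in HepG2 cells stably carrying hCAR and a 2.2kb CYP2B6 reporter after 23 hr compound exposure across 15 concentrations, with CITCO present at 50 nM.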

[16] = A CellTox Green Cytotoxicity Assay to monitor cytotoxicity in HEK293 cells - 0 hour (AID 1224869)
How it was run: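 Seeding of HEK293 cells together with cytotoxicity dye preceded a 5 h incubation at 37 C/5% CO2. Test compounds in DMSO were then added and fluorescence monitored across 40 h.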
Tags describe the fitted curve by direction and shape or compound fluorescence and quenching.

Sequence of UniProt P08659 (P08659 whole entry, looked up): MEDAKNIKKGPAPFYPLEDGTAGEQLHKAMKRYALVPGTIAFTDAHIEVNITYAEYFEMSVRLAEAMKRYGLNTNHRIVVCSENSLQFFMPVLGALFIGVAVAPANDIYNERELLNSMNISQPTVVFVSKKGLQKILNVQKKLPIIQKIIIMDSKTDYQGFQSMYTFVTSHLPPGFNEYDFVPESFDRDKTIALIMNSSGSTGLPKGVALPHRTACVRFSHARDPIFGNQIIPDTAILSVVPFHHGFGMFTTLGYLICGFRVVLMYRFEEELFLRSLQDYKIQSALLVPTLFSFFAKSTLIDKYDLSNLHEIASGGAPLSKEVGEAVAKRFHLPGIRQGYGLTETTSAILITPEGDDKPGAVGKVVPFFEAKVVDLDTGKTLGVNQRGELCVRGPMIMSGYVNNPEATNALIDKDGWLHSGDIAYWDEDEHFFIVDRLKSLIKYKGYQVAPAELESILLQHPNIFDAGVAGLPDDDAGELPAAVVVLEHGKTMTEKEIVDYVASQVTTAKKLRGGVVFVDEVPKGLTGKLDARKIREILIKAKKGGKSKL
Sequence of UniProt P16473 (P16473 whole entry, looked up): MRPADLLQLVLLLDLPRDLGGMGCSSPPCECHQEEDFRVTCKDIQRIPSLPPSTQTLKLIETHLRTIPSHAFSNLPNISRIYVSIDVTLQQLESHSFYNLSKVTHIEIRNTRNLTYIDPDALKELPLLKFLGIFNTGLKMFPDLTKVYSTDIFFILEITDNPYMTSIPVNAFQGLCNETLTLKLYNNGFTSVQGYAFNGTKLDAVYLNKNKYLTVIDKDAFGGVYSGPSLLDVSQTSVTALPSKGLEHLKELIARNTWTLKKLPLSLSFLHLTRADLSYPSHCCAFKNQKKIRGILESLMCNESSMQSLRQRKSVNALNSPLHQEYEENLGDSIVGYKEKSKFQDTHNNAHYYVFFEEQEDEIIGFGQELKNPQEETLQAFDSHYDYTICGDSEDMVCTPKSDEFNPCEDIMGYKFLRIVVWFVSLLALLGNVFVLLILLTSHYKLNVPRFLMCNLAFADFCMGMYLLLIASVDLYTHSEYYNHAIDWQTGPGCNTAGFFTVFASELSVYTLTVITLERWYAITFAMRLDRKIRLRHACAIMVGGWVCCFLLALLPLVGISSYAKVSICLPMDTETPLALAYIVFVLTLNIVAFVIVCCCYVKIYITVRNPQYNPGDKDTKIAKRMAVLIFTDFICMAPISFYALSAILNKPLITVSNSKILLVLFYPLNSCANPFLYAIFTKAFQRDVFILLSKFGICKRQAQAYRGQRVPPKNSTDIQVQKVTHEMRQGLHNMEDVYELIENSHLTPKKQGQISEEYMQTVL
Sequence of UniProt Q14994 (Q14994 whole entry, looked up): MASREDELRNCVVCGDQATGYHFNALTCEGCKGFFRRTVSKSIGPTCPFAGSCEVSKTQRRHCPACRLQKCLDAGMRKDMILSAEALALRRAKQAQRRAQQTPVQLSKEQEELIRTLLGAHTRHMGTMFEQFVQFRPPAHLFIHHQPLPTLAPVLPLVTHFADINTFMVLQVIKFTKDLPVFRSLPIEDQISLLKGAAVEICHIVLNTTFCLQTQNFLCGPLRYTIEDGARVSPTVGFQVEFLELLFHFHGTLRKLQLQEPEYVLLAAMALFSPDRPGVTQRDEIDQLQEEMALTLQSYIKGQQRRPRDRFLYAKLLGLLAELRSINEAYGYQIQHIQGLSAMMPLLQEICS

CSc1ccc(/C=C2/C(C)=C(CC(=O)O)c3cc(F)ccc32)cc1
Potency [1]: inconclusive: 29.8 µM [cytotoxic, partial curve] | Potency [2]: inconclusive: 34.7 µM [inhibitor, partial curve] | Potency [3]: inactive | Potency [4]: inactive | Potency [5]: active: 10.7 µM | Potency [6]: inactive | Potency [7]: inconclusive: 3.79 µM

CCCCCCCC/C=C\CCCCCCCC(=O)N(C)CC(=O)O
Potency [1]: inconclusive: 43.3 µM [cytotoxic, partial curve] | Potency [2]: inconclusive: 89.4 µM [inhibitor, single point] | activation [4]: inconclusive: -15.6% | Potency [5]: active: 49 µM | activation (H2AX phosphorylation) [6]: inconclusive: 8.4% | Potency [7]: inconclusive: 54.9 µM | Potency [8]: inconclusive: 61.1 µM [inhibitor, partial curve] | Potency [9]: inconclusive: 54.9 µM [cytotoxic, partial curve, poor fit]

O=[N+]([O-])c1cc(Cl)c(Cl)c(Cl)c1Cl
Potency [1]: inconclusive: 68.3 µM [cytotoxic, single point] | Potency [2]: inactive | Potency [10]: inconclusive: 68.3 µM [falling, single point] | Potency [6]: inconclusive: 100 µM [activator] | Potency [8]: inconclusive: 76.6 µM [inhibitor, single point] | Potency [9]: inconclusive: 6.89 µM [rising, partial curve]

Nc1ccc(Cl)cc1[N+](=O)[O-]
Potency [1]: inconclusive: 60.5 µM [cytotoxic, partial curve, poor fit] | Potency [2]: inconclusive: 88.5 µM [inhibitor, single point] | Potency [11]: inconclusive: 60.5 µM [activator] | Potency [12]: inactive | Potency [10]: inactive | Potency [4]: inactive | Potency [5]: inactive | Potency [13]: inconclusive: 112 µM [cytotoxic, single point]

CCc1ccccc1O
Potency [1]: inconclusive: 60.8 µM [cytotoxic, partial curve] | Potency [2]: inconclusive: 39.7 µM [inhibitor, partial curve] | Potency [11]: inconclusive: 54.2 µM [activator, partial curve] | Potency [4]: inconclusive: 48.3 µM [activator, partial curve] | Potency [6]: inconclusive: 50.2 µM | Potency [7]: inconclusive: 54.7 µM | Potency [9]: inconclusive: 61.3 µM [cytotoxic, single point]

OCCN(CCO)c1nc(N2CCCCC2)c2nc(N(CCO)CCO)nc(N3CCCCC3)c2n1
Potency [14]: inactive | Potency [1]: inconclusive: 23.7 µM [rising, partial curve] | Potency [3]: inconclusive: 21.1 µM [rising, partial curve] | Potency [15]: inconclusive: 21.1 µM [rising, partial curve] | Potency [12]: inconclusive: 29.8 µM [rising, partial curve] | Potency [10]: active: 21.1 µM | Potency [5]: inconclusive: 13.4 µM [cytotoxic] | Potency [6]: inconclusive: 27.7 µM [falling, partial curve] | Potency [7]: inconclusive: 16.9 µM [fluorescent, partial curve]

COc1cc2c(c(OC)c1OC)-c1ccc(OC)c(=O)cc1[C@@H](NC(C)=O)CC2
Potency [1]: inconclusive: 48 nM [cytotoxic, full curve] and inconclusive: 27.3 nM [cytotoxic, full curve] | Potency [2]: inconclusive: 62.5 µM [inhibitor, partial curve, poor fit] | Potency [3]: inconclusive: 135 nM [cytotoxic, full curve] and inconclusive: 217 nM [cytotoxic, full curve] | Potency [15]: inconclusive: 107 nM [cytotoxic, full curve] and inconclusive: 172 nM [cytotoxic, full curve] and inconclusive: 16.8 nM [cytotoxic] | Potency [12]: active: 2.4 µM and inconclusive: 43.3 nM [cytotoxic, full curve] | Potency [9]: inconclusive: 15.5 nM [cytotoxic, full curve] and inconclusive: 3 nM [cytotoxic, full curve]

O=c1c(O)c(-c2ccc(O)c(O)c2)oc2cc(O)cc(O)c12
Potency [1]: inconclusive: 54.5 µM [cytotoxic, partial curve] and active: 43.6 µM and active: 27.3 µM | Potency [2]: active: 35.9 µM [middle of 4 runs] | Potency [3]: inconclusive: 61.2 µM [cytotoxic, partial curve] and inconclusive: 43.3 µM [cytotoxic, partial curve] and inconclusive: 29.8 µM [cytotoxic, single point] | Potency [15]: inconclusive: 48.6 µM [cytotoxic, partial curve] [middle of 4 runs] | Potency [11]: active: 54.5 µM and inconclusive: 61.6 µM [activator, single point] and inconclusive: 54.5 µM [activator, partial curve] | Potency [4]: inconclusive: 54.5 µM [falling, single point] | activation [4]: inconclusive: 0.37% | Potency [9]: inconclusive: 49 µM [cytotoxic, single point] and inconclusive: 34.7 µM [cytotoxic, partial curve] | Potency [16]: inconclusive: 49.4 µM [activator, partial curve, poor fit]
